# Source: PubChem BioAssay AID2546 (National Center for Advancing Translational Sciences (NCATS), 2010)
# In all, about 310,000 compounds went through this assay and about 11,000 (3.5%) were called active. Inconclusive means that the source gave no clear call. Such entries were picked first, then a sample of the others. Calls come from the whole dose curve; as a rule, active = well fitted inhibition curve with a large enough effect; inconclusive = small, poorly fitted or top-dose-only effect, or effect the other way; inactive = flat fitted curve, though single readings scatter. No potency is given beside an inconclusive call; the fits are too rough.
# Test: VP16 counterscreen qHTS for inhibitors of ROR gamma transcriptional activity;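 note: Gal4-VP16 expression switched on by copper sulfate through the metallothionein promoter; nearly all actives have a fitted effect of over 50% in size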
# Details: Drosophila S2 Gal4-VP16 UAS-luciferase, luminescence, 20 h; series mostly up to 53.6 µM
# Potency is the fitted concentration of half-maximal effect; tags give direction and shape of the fitted curve.
row,SMILES,Potency
1,C/C(Cl)=C\Cn1c(O)c(N=NC(N)=S)c2cc(Br)ccc21,active: 3.16 µM
2,O=C(C[n+]1ccccc1)Nc1ccccc1C(F)(F)F,inactive
3,O=c1oc2c(O)cccc2cc1-c1nc2ccccc2[nH]1,"inconclusive [inhibitor, single point]"
4,Cc1oc(-c2cccc3ccccc23)nc1CN1CCC[C@H]1CO,"inconclusive [inhibitor, single point]"
5,O=C(CSc1ccc(F)cc1)N1CCC(c2nc3ccccc3s2)CC1,"inconclusive [inhibitor, partial curve, poor fit]"
6,CC(C)=CC(=O)Nc1ccc2c(c1)OCO2,"inconclusive [inhibitor, single point]"
7,CC[C@@H]1OC(=O)[C@H](C)[C@H](O[C@@H]2C[C@](C)(OC)[C@H](O)[C@H](C)O2)[C@H](C)[C@H](O[C@@H]2O[C@@H](C)C[C@@H](N(C)C)[C@@H]2O)[C@](C)(O)C[C@H](C)[C@@H]2N[C@H](COCCOC)O[C@H]([C@@H]2C)[C@]1(C)O,inactive
8,O=[N+]([O-])c1ccc2nc(-[n+]3c(-c4ccccc4)cc(-c4ccccc4)cc3-c3ccccc3)[nH]c2c1,"inconclusive [inhibitor, single point]"
9,c1ccc(-c2onc(-c3ccco3)c2-c2ccc3[nH]ccc3c2)cc1,inactive
10,N/C(=N\OC(=O)c1ccc2ccccc2c1)c1ccccn1,active: 7.94 µM
11,CN(C)c1ccc(/C=N/NC(=O)c2ccccn2)cc1,"inconclusive [inhibitor, single point]"
12,COC(=O)c1ccc(C(=O)NC2CCCc3c2cnn3-c2ccc(C)c(C)c2)cc1 (stereo unspecified),"inconclusive [inhibitor, partial curve, poor fit]"
13,COc1ccccc1C(=O)Nc1nnc(-c2ccco2)s1,"inconclusive [inhibitor, single point]"
14,O=C(c1c(F)cccc1F)N1CCCC(c2nc(-c3ccc(Cl)cc3)no2)C1 (stereo unspecified),"inconclusive [inhibitor, single point]"
15,COc1ccccc1C(=O)N(CCN(C)C)c1nc2cc(C)cc(C)c2s1,inactive
16,O=C(/C=C/c1ccc(F)cc1)NC(=S)N1CCN(Cc2ccccc2)CC1,active: 7.08 µM
17,CCCCN1CN(Cc2ccco2)CNC1=S,"inconclusive [inhibitor, single point]"
18,COC(=O)c1ccc(CN2CCc3ccc(NC(=O)c4ccncc4)cc3C2)cc1,inactive
19,C#CCOc1ccc(/C=C2/C(=O)ON=C2C)cc1Br,inactive
20,Cc1csc(NC(=O)c2c(-c3c(Cl)cccc3Cl)noc2C)n1,inactive
21,N#Cc1c(N2CCCC(O)C2)nc(N)c2c(N)nc3c(c12)CC(=O)N3C12CC3CC(CC(C3)C1)C2 (stereo unspecified),"inconclusive [inhibitor, single point]"
22,Cc1cc(Cl)ccc1OCc1cn2cccnc2n1,"inconclusive [activator, partial curve, poor fit]"
23,CC(C)n1cnc2c(N(C)c3ccccc3)nc(N(CCN(C)C)Cc3ccccc3)nc21,"inconclusive [inhibitor, single point]"
24,COc1cccc(OCc2cc(C(=O)N3CCN(c4ccccc4OC)CC3)no2)c1,"inconclusive [inhibitor, single point]"

row,SMILES,Potency
1,CCC(=O)Nc1cccc2ccccc12,inactive
2,CC(C)(C)C(=O)N/C(N)=N/c1nc2ccccc2o1,"inconclusive [inhibitor, single point]"
3,N/C(=N\OC(=O)c1ccc(Cl)cc1)c1ccn[nH]1,"inconclusive [inhibitor, single point]"
4,CCCCCCc1cc2cc(C(=O)NCc3ccccc3)c(=N)oc2cc1O,"inconclusive [inhibitor, single point]"
5,O=C(NCCN1CCN(Cc2ccccc2)CC1)c1cc2c(=O)[nH]c3ccccc3c2s1,"inconclusive [inhibitor, single point]"
6,COc1ccc(-c2nn(-c3ccccc3)cc2CNC(=O)c2cccc([N+](=O)[O-])c2)cc1,active: 8.91 µM
7,O=C(c1ccc(Br)cc1)N(Cc1nc2ccccc2c(=O)[nH]1)C1CCCC1,"inconclusive [inhibitor, single point]"
8,O=C(c1cc(COc2ccc3ncccc3c2)on1)N1CCCC1,active: 12.6 µM
9,CC(C)(C)NC(=O)C(c1cccs1)N(Cc1cccs1)C(=O)c1ccc(CN2CCOCC2)o1 (stereo unspecified),inactive
10,CCN(C1CCCCC1)S(=O)(=O)c1ccc(OC)c(C)c1,inactive
11,COc1ccc(NC(=O)N2c3ccccc3CC2C)cc1OC (stereo unspecified),inactive
12,COc1ccc(C)cc1S(=O)(=O)N(CC(=O)Nc1cccc([N+](=O)[O-])c1)c1cc(C)cc(C)c1,"inconclusive [inhibitor, single point]"
13,Cc1cc(NC(=O)CC#N)n(-c2nc3ccccc3[nH]2)n1,"inconclusive [inhibitor, single point]"
14,O=c1oc2ccc(Cl)cc2cc1-c1nnc(Nc2cccc(C(F)(F)F)c2)s1,inactive
15,CCOc1cc(Cl)c(S(=O)(=O)NCc2ccccn2)cc1Cl,active: 20 µM
16,O=C(O)c1ccc(N2CCCS2(=O)=O)cc1,inactive
17,COc1ccccc1/C=N/OC(=O)c1ccc(C)cc1,inactive
18,O=C(CN1CCCCC1)Nc1nc(-c2ccccc2)cs1,"inconclusive [activator, partial curve, poor fit]"
19,Cc1nn2c(N)c(-c3ccccc3)cnc2c1-c1ccc(Cl)cc1,"inconclusive [activator, partial curve, poor fit]"
20,CSc1ccc(CN2CCN(S(=O)(=O)Cc3ccccc3)CC2)cc1,"inconclusive [inhibitor, single point]"
21,Nc1ccc(N2CCOCC2)c(S(=O)(=O)Nc2cc(Cl)ccc2Cl)c1,inactive
22,S=C(NCc1ccccc1Cl)Nc1ccccc1Cl,active: 2.82 µM
23,Cn1cccc1Cc1nnc(SCC(=O)Nc2nc3ccccc3s2)n1CCc1ccccc1,"inconclusive [inhibitor, single point]"
24,Cc1ccc(N2C(=O)CC(Sc3nc4ccccc4o3)C2=O)cc1Cl (stereo unspecified),"inconclusive [inhibitor, single point]"

row,SMILES,Potency
1,Cc1ccccc1-c1nc2sc3c(c2c(=O)o1)CCC3,"inconclusive [activator, full curve]"
2,CCN1CCN(C(=O)c2cn(CC)c3ccc(S(=O)(=O)N(C)C)cc3c2=O)CC1,"inconclusive [inhibitor, single point]"
3,CCOC(=O)c1cnc2c(-c3ccccc3)cnn2c1C,"inconclusive [inhibitor, single point]"
4,COC(=O)CN1C(=O)[C@@H]2[C@H](C1=O)[C@@H]1CC(C(=O)OC)=C[C@@H](C(=O)OC)C3C1=C(C(=O)[C@@]3(C)NC(=O)c1ccccc1)[C@@H]2C (stereo partly specified),inactive
5,O=C(Cc1ncc(C(F)(F)F)cc1Cl)N1CCN(c2cccc(Cl)c2)CC1,"inconclusive [inhibitor, single point]"
6,O=C(c1cccnc1)N(c1cc2sc(=O)oc2c2ccccc12)S(=O)(=O)c1ccccc1,"inconclusive [inhibitor, single point]"
7,Cc1onc(-c2c(F)cccc2Cl)c1C(=O)NC(=S)NC1CCSC1=O (stereo unspecified),active: 7.08 µM
8,Cc1cccc(CSCc2ccc(C(=O)O)o2)c1,"inconclusive [inhibitor, full curve, poor fit]"
9,O=C1NC(=Nc2ccc3ccccc3c2)S/C1=C/c1ccco1,"inconclusive [activator, partial curve]"
10,O=C1C(c2cc(=O)c3ccccc3[nH]2)=C(O)c2ccccc21,"inconclusive [inhibitor, single point]"
11,CCOC(=O)c1sc2nc(C)nc(NCCc3ccc(S(N)(=O)=O)cc3)c2c1C,"inconclusive [inhibitor, full curve]"
12,COc1ccc(CCNC(=S)NC2CCN(Cc3ccccc3)CC2)cc1,"inconclusive [inhibitor, partial curve, poor fit]"
13,Cc1ccc(NC(=O)CN(C)Cc2c(O)ccc3ccccc23)cc1,inactive
14,CC(=O)N1CCC2(CC1)CN(C(=O)Nc1cccc(C#N)c1)C2,"inconclusive [activator, single point]"
15,Cc1ccc(S(=O)(=O)N(C)CC(=O)N2CCC(C(N)=O)CC2)cc1,inactive
16,CCOC(=O)Cc1csc(NC(=O)c2cc3c(s2)CCCC3)n1,inactive
17,CSc1cnn(Cc2ccccc2)c(=O)c1SCc1ccccc1,active: 2.51 µM
18,CN1CCc2c(sc3nc(SCC(=O)N4CCOCC4)n(-c4ccc(Cl)cc4)c(=O)c23)C1,"inconclusive [inhibitor, single point]"
19,CC(C)(C)NC(=O)c1ccnc(C(C)(C)C)c1,"inconclusive [inhibitor, single point]"
20,COc1ccc(N(CC(=O)N2CCN(c3cccc(C)c3)C(C)C2)S(=O)(=O)c2c(C)n[nH]c2C)cc1 (stereo unspecified),inactive
21,CC(c1ccccn1)N(Cc1ccco1)C(=S)Nc1cccc(F)c1 (stereo unspecified),"inconclusive [inhibitor, single point]"
22,O=C(Nc1nnc(-c2ccco2)o1)c1ccc2ccccc2c1,active: 1.12 µM
23,CSCc1cc(N(C)c2ccccc2)nc(-c2ccccn2)n1,active: 3.16 µM
